Source: ChEMBL document CHEMBL1157539, “Thousands of chemical starting points for antimalarial lead identification” (Nature, 2010)
Where “and” joins values, the source holds several entries; their conditions need not be identical. Identical values can stand only once. In all, about 13,000 compounds were measured (“IFI”: median about 4, highest 2% from about 17 on). The list shows a part of the results.

Test: GSK_TCMDC: Inhibition Frequency Index (IFI). The number of non-kinase HTS assays where a compound showed > 50 % inhibition, expressed as a percentage of the number of such assays in which the compound was tested (-0 is zero)
Format: functional

First: O=C(N[C@@H](CC1CCCCC1)C(=O)NCCN1CCOCC1)c1ccc(O)c(-c2ccc(Cl)c(Cl)c2)c1
Second: CN1CC[C@@H](Oc2cc(C(=O)NCc3ccc(Cl)c(Cl)c3)ccc2C(F)(F)F)C1
The IFI of the first is lower: 1.48% for the first, 6.56% for the second.

Compared with `CCC(=C(CC)c1ccc(O)c(CNC2CCCCC2)c1)c1ccc(O)c(CNC2CCCCC2)c1`, `Cc1cc(N[C@@H](Cc2ccccc2)C(=O)NCc2cccc(F)c2)nc(NCC2CCCCC2)n1` is higher in IFI: 11.4% for the first, 27.9% for the second.

Going from `CN(C)C(=O)CN1CCN(c2ncnc(N3CCc4c([nH]c5ccccc45)[C@@H]3c3ccc4c(c3)CCO4)n2)CC1` to `COc1ccc(NC(=O)c2ccc(Br)c(C)c2)cc1N1CCN(CCCc2c[nH]c3ccccc23)CC1`, the IFI rises from 2.9% to 3.08%.

First: Cc1cc(C2NC(=O)c3ccccc3N2)c(C)n1-c1ccc2c(c1)OCO2 (stereo unspecified)
Second: COc1ccc2c(=NN=Cc3ccccc3Cl)cc(C)[nH]c2c1
The IFI of the first is higher: 3.7% for the first, 3.65% for the second.

Going from `O=C(Nc1cccc(F)c1)N1CCC(NS(=O)(=O)c2ccc(Br)cc2)CC1` to `CCCCCN1CCCC(NS(=O)(=O)c2ccc(C(=O)Nc3ccc(C(F)(F)F)cc3)cc2)C1` (stereo unspecified), the IFI rises from 0.74% to 5.88%.

Compared with `O=S(=O)(NCCN1CCCC1)c1cccc(-c2ccc(CNCc3ccsc3)cc2)c1`, `CN1CCC(NCc2cccc(-c3ccc(S(=O)(=O)NCc4ccccc4)c(F)c3)c2)CC1` is higher in IFI: 8.41% for the first, 11.3% for the second.

First: OC(CNCc1ccccc1)c1cc(OCc2ccccc2)cc(OCc2ccccc2)c1 (stereo unspecified)
Second: O=C(NCCc1ccccc1)N(Cc1ccc(-c2cccc(CN3CCNCC3)c2)cc1)C1CCN(Cc2ccccc2)CC1
The IFI of the first is lower: 4.51% for the first, 6.67% for the second.

Going from `O=C(Nc1ccc2c(c1)CCNCC2)Nc1ccc2ccccc2c1` to `O=C(Nc1ccc(-c2ccc(-c3nc4ccccc4[nH]3)s2)cc1)Nc1ccsc1`, the IFI falls from 3.45% to 2.02%.

First: COc1ccc(NC(=O)[C@H](C)Nc2cc(C)nc(NCC3CCCCC3)n2)cc1
Second: COc1ccc(NC(=O)CCNc2cc(C)nc(NCCc3ccccc3)n2)cc1
The IFI of the first is higher: 12.5% for the first, 2.27% for the second.

Going from `CCc1ccc(OCc2ccccc2C(=O)Nc2ccc3nc(C)cc(N)c3c2)cc1` to `CCOC(=O)c1cn(CC)c2cc(OCc3ccccc3)ccc2c1=O`, the IFI falls from 11.3% to 0.83%.

Going from `Nn1c(=O)oc2ccc(Cl)cc2c1=O` to `CNCCCNCc1ccc(-c2ccc(F)c(Cl)c2)o1`, the IFI falls from 2.92% to 2.78%.

First: CCCCCCCN1CC[C@@H](CCCc2ccnc3ccc(OCCCCNC(N)=O)cc23)[C@@H](CC)C1
Second: CCCCCCCNCCNc1cc(C)nc2ccccc12
The IFI of the first is higher: 8.76% for the first, 7.19% for the second.

Compared with `COc1ccc2nc3cc(Cl)ccc3c(NCCCO)c2c1`, `COc1cc2nc(NCCCO)nc(Nc3ccc(Oc4ccccc4)cc3)c2cc1OC` is higher in IFI: 5.51% for the first, 9.35% for the second.

Going from `COc1ccc(NC(=O)Nc2ccc(C)c(-c3ccc(C(=O)Nc4ccncc4)cc3)c2)cc1` to `O=C(Nc1ccc(-c2nc3ccc(NC(=O)c4ccc(Br)cc4)cc3[nH]2)cc1)c1ccc(Br)cc1`, the IFI falls from 25.4% to 3.01%.

First: COc1cc(-c2[nH]c(-c3ccc(OCCN(C)C)cc3)cc2-c2ccncc2)ccc1Cl
Second: Oc1cc(-c2nc(C3(CNCc4ccc(Cl)cc4)CCCCC3)[nH]c2-c2ccncc2)ccc1Cl
The IFI of the first is lower: 4.32% for the first, 11.6% for the second.

First: O=[N+]([O-])c1ccc(Nc2nc(NCc3ccccc3)nc(N/N=C/c3ccccc3[N+](=O)[O-])n2)cc1
Second: O=[N+]([O-])c1cccc(C=NNc2nc(=Nc3ccccc3)[nH]c(=Nc3ccccc3)[nH]2)c1
The IFI of the first is lower: 3.97% for the first, 5.04% for the second.

Going from `OCC1CCN(Cc2ccc(-c3cccc(-c4nc5cc(C(F)(F)F)ccc5[nH]4)c3)cc2)CC1` to `CC(CN(C)C)C(=O)Nc1ccc(-c2cccc(-c3nc4cc(C(F)(F)F)ccc4[nH]3)c2)cc1` (stereo unspecified), the IFI rises from 0.99% to 6.25%.

First: CN(Cc1c(Cl)cnn1C)S(=O)(=O)c1ccc2ccccc2c1
Second: CN(CC(=O)Nc1cc(C(F)(F)F)ccc1-n1cncn1)Cc1ccc2ccccc2c1
The IFI of the first is higher: 14.8% for the first, 2.82% for the second.

First: COc1ccc2nccc([C@@H](O)CN3CCC(NCCOc4c(C)cccc4F)CC3)c2c1
Second: COC(=O)c1ccc2nc(-c3cc(OC)c(O)c(C(=O)NC4CCN(Cc5ccccc5)CC4)c3)[nH]c2c1
The IFI of the first is higher: 2.24% for the first, 0.76% for the second.

Going from `O=C(Cc1c[nH]cn1)Nc1cccc(-c2cccc(-c3nc4ccccc4[nH]3)c2)c1` to `NC(=O)c1ccccc1OCC(=O)Nc1ccc(-c2cccc(-c3nc4cc(C(F)(F)F)ccc4[nH]3)c2)cc1`, the IFI rises from 3.67% to 4.39%.

Compared with `Fc1ccccc1C=NNc1ccnc2cc(Cl)ccc12`, `COc1ccc(Nc2ccnc3cc(-c4ccccn4)ccc23)cc1OC` is higher in IFI: 1.48% for the first, 2.13% for the second.

First: CN1CCN(CCCSc2ccc3c(c2)ncn3-c2cc(OCc3ccccc3C(F)(F)F)c(C(N)=O)s2)CC1
Second: CN1CCN(CC(=O)Nc2cccc(-c3ccc(-c4nc5cc(C(F)(F)F)ccc5[nH]4)s3)c2)CC1
The IFI of the first is higher: 10.8% for the first, 7.14% for the second.

Compared with `Cc1csc2nc(-c3ccccn3)nc(Nc3ccncn3)c12`, `Fc1ccc(-c2cncc(Nc3ccncc3)n2)cc1` is lower in IFI: 9.87% for the first, 3.03% for the second.

Compared with `CCc1cc2c3c(N)nc(N)nc3ccc2n1CC`, `CCCCCN(C(=O)Nc1cc(C(F)(F)F)cc(C(F)(F)F)c1)C(C)c1nc2ccccc2c(=O)n1CC` (stereo unspecified) is higher in IFI: 3.52% for the first, 3.55% for the second.

Going from `Cc1ccc2c(=NN=Cc3ccc(N(C)C)cc3)cc(C)[nH]c2c1` to `CCN(CC)S(=O)(=O)c1cc(-c2ccc(=O)n(CC(=O)c3ccc(C)cc3)n2)ccc1C`, the IFI falls from 4.44% to 2.38%.

Compared with `Cc1cc(NC(=O)c2ccco2)ccc1OC1CCN(Cc2ccccc2)CC1`, `O=C(Cc1ccccc1)NC(CCN1CCC(N(C2CC2)S(=O)(=O)c2cccc(C(F)(F)F)c2)CC1)c1ccc(Cl)c(Cl)c1` (stereo unspecified) is higher in IFI: 1.67% for the first, 2.82% for the second.

Going from `Cn1cncc1CCCN(Cc1ccc(-c2ccc(C(F)(F)F)cc2)cc1)C(=O)Cn1c(CCc2cccc(F)c2F)cc(=O)c2cccnc21` to `O=C(Cn1c(CCc2cccc(F)c2F)cc(=O)c2ccccc21)N(CCN1CCCCC1)Cc1ccc(-c2ccc(C(F)(F)F)cc2)cc1`, the IFI rises from 1.48% to 3.62%.

First: CC(C)(C)c1ccc(CNC(=O)/C=C/c2ccc(CNC3CCNCC3)cc2)cc1
Second: C=CCc1ccc(C[C@H](NC(=O)OC(C)(C)C)C(=O)OC)cc1
The IFI of the first is lower: 1.42% for the first, 18.9% for the second.

Going from `Cc1c[nH]c2cc(/C=C/C(=O)NC3CCC(CCN4CCc5ccc(C#N)cc5CC4)CC3)ccc12` (stereo unspecified) to `O=C(NC1CCN(CCN2CCC(c3ccccc3C(F)(F)F)CC2)CC1)c1ccc(-c2ccc(Cl)cc2)cc1`, the IFI rises from 2.99% to 7.27%.

Compared with `COc1ccc2ncc(F)c(CCN3C4CCC3CC(NCc3ccc5c(c3)OCCO5)C4)c2n1` (stereo unspecified), `Cc1nc(NC2=NCN(CCCN3CCOCC3)CN2)nc2c(C)cccc12` is higher in IFI: 2.92% for the first, 7.02% for the second.

Compared with `CCCNCc1ccc(-c2ccc(CN(CCOC)C(=O)COc3ccccc3Cl)cc2)nc1`, `CCCCNCC(O)COc1ccccc1-c1ccc(N/N=C/c2cccc3ccccc23)nn1` (stereo unspecified) is higher in IFI: 2.26% for the first, 6.82% for the second.

Compared with `CC1CN(CC(O)Cn2c3ccc(Br)cc3c3cc(Br)ccc32)CC(C)O1` (stereo unspecified), `CC(C)CNC(=O)c1ccc(-c2cccc(CN3CCC(N4CCCC4)CC3)c2)nc1` is lower in IFI: 1.44% for the first, 0% for the second.

First: N#Cc1ccc(N(CCOc2ccc(Cl)c(Cl)c2)Cc2ccccc2C(F)(F)F)cc1C(F)(F)F
Second: CCN(CC)CCN(Cc1ccc(-c2ccc(C(F)(F)F)cc2)cc1)C(=O)Cn1c(CCc2ccccc2F)nc(=O)c2ccccc21
The IFI of the first is lower: 0% for the first, 8.76% for the second.

First: Cc1ccc(F)cc1S(=O)(=O)NCC(C)c1ccc(NC(=O)Nc2cccc(F)c2)cc1 (stereo unspecified)
Second: N=C(N)Nc1nc(-c2cccc(NC(=O)NCc3cccc4ccccc34)c2)cs1
The IFI of the first is higher: 6.4% for the first, 3.1% for the second.

First: COc1cc2nc(NCCn3nc(C)cc3C)nc(NCCc3ccccc3)c2cc1OC
Second: Oc1cccc(Nc2nc(NCc3ccco3)c3ccccc3n2)c1
The IFI of the first is lower: 4.26% for the first, 7.91% for the second.

Compared with `CCN(CC)CCN(Cc1ccc(-c2ccc(C(F)(F)F)cc2)cc1)C(=O)Cn1cc(CCCCc2cccc(F)c2F)c(=O)c2ccccc21`, `Oc1ccc(CCNCCCCCCNCCc2ccc(-c3ccccc3)cc2)cc1O` is higher in IFI: 5.19% for the first, 9.93% for the second.

Compared with `Cc1ccc(Nc2nc(C)cc(NC3CCN(C)CC3)n2)cc1`, `Cn1nc(-c2ccc(NC(=O)Nc3cc(C(F)(F)F)ccc3F)cc2)c2cnc(NCCCCN3CCCC3)nc21` is higher in IFI: 2.9% for the first, 9.3% for the second.

Compared with `CS(=O)(=O)c1ccc(Nc2ncc(-c3ccc(S(C)(=O)=O)cc3)c(OCC(F)(F)F)n2)cc1`, `CN(C)Cc1cccc(-c2ccc(NC(=O)c3ccc4c(=O)n(Cc5cnn(C)c5)cnc4c3)cc2)c1` is lower in IFI: 3.76% for the first, -0% for the second.

`O=C(CC(c1ccccc1)c1ccccc1O)N1CCOCC1` (stereo unspecified) and `O=C(Nc1ccccc1O)C1CCN(c2ncnc3cc(-c4ccc(F)cc4)sc23)CC1` are the same in IFI: -0% for the first, -0% for the second.

First: NC1CCN(Cc2ccc(-c3ccc(-c4nc5ccccc5[nH]4)cc3)cc2)C1 (stereo unspecified)
Second: Oc1ccc(CCNc2nc(NCCCOc3ccccc3-c3ccncc3)nc(N3CCNCC3)n2)cc1
The IFI of the first is higher: 4.29% for the first, 1.72% for the second.

Going from `Cc1cccc2nc(-c3ccc(-c4cccc(CNCCNC(=O)c5ccnn5C)c4)s3)[nH]c12` to `Cc1cccn2c(=O)c3cc(C(=O)NC(C)c4ccccc4)c(=N)n(CCc4ccccc4)c3nc12` (stereo unspecified), the IFI falls from 2.02% to 1.74%.

Compared with `Cc1ncsc1CCN1C(=O)CC2(C1=O)C(=O)N(Cc1ccccc1)c1ccc(Cl)cc12` (stereo unspecified), `COc1cc(OC)c2c(c1Cl)O[C@]1(C2=O)C(=O)C(Cc2ccccc2)(Cc2ccccc2)C(=O)C[C@H]1C` is lower in IFI: 1.72% for the first, 1.47% for the second.

First: COc1cc(NC2=C(c3ccccc3)C(=O)c3ccccc32)ccn1
Second: O=C(N/N=C/c1nc2ccccc2[nH]1)c1cccc([N+](=O)[O-])c1
The IFI of the first is higher: 0.72% for the first, -0% for the second.

Compared with `CCCCN(CCCC)CC(O)c1cc(-c2ccc(Cl)cc2)nc2c(Cl)cc(Cl)cc12` (stereo unspecified), `COc1cc(NC(=O)c2sc(-c3ccc(Cl)cc3)cc2NC(=O)N2CCCC2)ccc1OCCN1CCCC1` is higher in IFI: 0.75% for the first, 6.57% for the second.

Going from `C=CCNC(=O)CCCNC(=N)N` to `CC(=O)c1sc(NC(=O)Nc2ccc(C)cc2C)nc1C`, the IFI falls from 1.5% to -0%.

For `O=C(Nc1cccc(-c2cccc(-c3nc4ccccc4[nH]3)c2)c1)NC1CC1c1ccccc1` (stereo unspecified), the IFI was 2.04% and 3.06%.
